# Measured values: PubChem BioAssay (Tox21)
# Several values for one entry are separate records, joined by “and”; a condition that tells them apart may be missing. Identical values can stand only once. This list was built around the results that the source calls inconclusive (neither active nor inactive); the mix of calls is not that of the screen. Potencies beside an inconclusive call are fits to weak or partial responses and may not hold up. Some compounds were tested as several samples or in several runs, with calls that do not always agree. Activity calls are given as the source filed them. Calls follow the shape of the dose curve; as a rule, active = well fitted curve in the direction sought with a large enough effect in the repeat runs; inconclusive = weak or mixed curves; inactive = no such curve, though single readings can be large; an effect the other way counts as inactive or inconclusive.
# Experiments:
# [1] = A CellTox Green Cytotoxicity Assay to monitor cytotoxicity in HepG2 cells - 32 hour (AID 1224883); also: nearly all actives have a fitted effect of over 50% in size
# Outline: (§1)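 Nonlytic assay: viable cells exclude the dye, so fluorescence scales with cell death. HepG2 at 600 cells/well, compounds added after 5 h, signal read across 40 h.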
# [2] = A CellTox Green Cytotoxicity Assay to monitor cytotoxicity in HEK293 cells - 8 hour (AID 1224884); also: nearly all actives have a fitted effect of over 35% in size
# Outline: (§2)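 Seeding of HEK293 cells together with cytotoxicity dye preceded a 5 h incubation at 37 C/5% CO2. Test compounds in DMSO were then added and fluorescence monitored across 40 h.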
# [3] = qHTS RealTime-Glo MT Cell Viability Assay in HEK293 cells - 24 hour (AID 1224886); also: nearly all actives have a fitted effect of over 50% in size
# Outline: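 Cells + reagent dispensed (600 cells/well, HEK293) → 5 h at 37 C/5% CO2 → 23 nL compound in DMSO pinned → 40 h at 37 C → luminescence read at 0, 8, 16, 24, 32, 40 h.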
# [4] = qHTS RealTime-Glo MT Cell Viability Assay in HEK293 cells - 8 hour (AID 1224887); also: nearly all actives have a fitted effect of over 50% in size
# Outline: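 Tox21 screen in HEK293 using RealTime-Glo MT chemistry, with cells and reagent co-dispensed. Luminescence proportional to viable cell number was captured at intervals during 40 h compound exposure at 37 C.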
# [5] = qHTS RealTime-Glo MT Cell Viability Assay in HepG2 cells - 16 hour (AID 1224885); also: nearly all actives have a fitted effect of over 50% in size
# Outline: (§3)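 Real-time, nonlytic viability: 600 HepG2 cells/well mixed with NanoLuc enzyme plus prosubstrate; 5 h settle, compound (DMSO) added by pintool; luminescence monitored over 40 h at 37 C.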
# [6] = A CellTox Green Cytotoxicity Assay to monitor cytotoxicity in HEK293 cells - 16 hour (AID 1224888); also: nearly all actives have a fitted effect of over 35% in size
# Outline: as §2
# [7] = A CellTox Green Cytotoxicity Assay to monitor cytotoxicity in HepG2 cells - 8 hour (AID 1224890); also: nearly all actives have a fitted effect of over 45% in size
# Outline: as §1
# [8] = qHTS assay to identify small molecule antagonists of the estrogen receptor alpha (ER-alpha) signaling pathway using the BG1 cell line in the presence of 0.1 nM 17-beta-estradiol - cell viability counter screen (AID 1259241); also: nearly all actives have a fitted effect of over 40% in size
# Outline: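 VM7Luc4E2, 4,000 cells/well, phenol red-free medium + 10% charcoal-stripped FBS; 24 hr plating; cpd + 0.1 nM E2 final, 22 hr 37C/5% CO2; CellTiter-Fluor 30 min, fluorescence.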
# [9] = qHTS RealTime-Glo MT Cell Viability Assay in HepG2 cells - 0 hour (AID 1224889); also: nearly all actives have a fitted effect of over 50% in size
# Outline: as §3
# Potency is read from the fitted curve at half-maximal effect; tags tell the direction and shape of the fitted curve.
SMILES,Potency [1],Potency [2],Potency [3],Potency [4],Potency [5],Potency [6],Potency [7],Potency [8],Potency [9]
CC(=O)OC/C=C(C)/C=C/C=C(C)/C=C/C1=C(C)CCCC1(C)C,"inconclusive: 1.74 µM [activator, partial curve, poor fit]","inconclusive: 21.9 µM [activator, single point]","inconclusive: 23.9 µM [rising, partial curve, poor fit]","inconclusive: 60.2 µM [cytotoxic, partial curve, poor fit]",,,,,
Clc1nc(C(Cl)(Cl)Cl)c(Cl)c(Cl)c1Cl,active: 43.6 µM,,,"inconclusive: 61.6 µM [cytotoxic, partial curve, poor fit]","inconclusive: 49 µM [cytotoxic, partial curve]","inconclusive: 54.9 µM [activator, partial curve, poor fit]",,,
Cc1cc(C(C)(C)C)c(O)c(C(C)(C)C)c1,"inconclusive: 55.1 µM [activator, single point]","inconclusive: 55.1 µM [activator, single point] and inconclusive: 21.9 µM [activator, single point]","inconclusive: 43.8 µM [cytotoxic, partial curve, poor fit]","inconclusive: 34.8 µM [cytotoxic, partial curve]",,"inconclusive: 55.1 µM [activator, single point] and inconclusive: 19.5 µM [activator, single point]","inconclusive: 61.7 µM [activator, single point]",,
O=C(Nc1ccc(Cl)cc1)Nc1ccc(Cl)c(Cl)c1,"inconclusive: 9.73 µM [activator, full curve, poor fit] and inconclusive: 19.5 µM [activator, single point]",,"inconclusive: 4.87 µM [cytotoxic, full curve] and inconclusive: 4.36 µM [cytotoxic, full curve] and inconclusive: 4.25 µM [cytotoxic, full curve]","inconclusive: 8.49 µM [cytotoxic, partial curve, poor fit]","inconclusive: 10.7 µM [cytotoxic, partial curve, poor fit]",,,"inconclusive: 23.7 µM [cytotoxic, partial curve, poor fit]",
CCCCc1oc2ccc(NS(C)(=O)=O)cc2c1C(=O)c1ccc(OCCCN(CCCC)CCCC)cc1,active: 19 µM,active: 23.9 µM,,active: 19 µM,active: 19 µM,active: 23.9 µM,,"inconclusive: 29.8 µM [cytotoxic, partial curve, poor fit]","inconclusive: 13.4 µM [cytotoxic, partial curve]"
c1ccc(Nc2cccc3ccccc23)cc1,"inconclusive: 49.6 µM [activator, single point] and inconclusive: 54.9 µM [activator, single point]",,"inconclusive: 49.6 µM [cytotoxic, partial curve] and inactive","inconclusive: 39.4 µM [cytotoxic, partial curve] and inconclusive: 61.7 µM [cytotoxic, single point]","inconclusive: 49.6 µM [cytotoxic, partial curve, poor fit]",,,,
CN1CCN(CCCN2c3ccccc3Sc3ccc(Cl)cc32)CC1,active: 23.9 µM,,"inconclusive: 26.8 µM [cytotoxic, single point]",inactive,"inconclusive: 19 µM [cytotoxic, partial curve]",,"inconclusive: 23.9 µM [activator, single point]",,"inconclusive: 26.8 µM [rising, single point]"
Cc1ccc(C(C)(C)C)c(O)c1,"inconclusive: 53.2 µM [activator, single point] and active: 38.9 µM",,"inconclusive: 47.4 µM [cytotoxic, partial curve]","inconclusive: 26.7 µM [cytotoxic, partial curve]","inconclusive: 49 µM [cytotoxic, partial curve]",,,,
O=C1c2ccccc2C(=O)N1SC1CCCCC1,"inconclusive: 54.9 µM [activator, single point] and active: 24.5 µM","inconclusive: 38.9 µM [activator, partial curve]",,active: 38.9 µM,"inconclusive: 54.9 µM [cytotoxic, single point] and active: 38.9 µM","inconclusive: 48.9 µM [activator, single point] and active: 43.6 µM","inconclusive: 61.6 µM [activator, partial curve, poor fit] and inconclusive: 54.9 µM [activator, single point]",,
C[C@]12CC[C@@H]3c4ccc(O)cc4CC[C@H]3[C@@H]1CC[C@@H]2OC(=O)CCC1CCCC1,active: 49 µM and active: 23.9 µM,"inconclusive: 54.9 µM [activator, single point]",,active: 49 µM,active: 49 µM,"inconclusive: 54.9 µM [activator, single point] and inconclusive: 30.1 µM [activator, single point]","active: 49 µM and inconclusive: 23.9 µM [activator, partial curve]",,
COc1ccc(CN2CCN(C(c3ccc(F)cc3)c3ccc(F)cc3)CC2)c(OC)c1OC,active: 10.7 µM,,,,"inconclusive: 23.9 µM [cytotoxic, partial curve]",,,,
Nc1nc(N)c2nc(-c3ccccc3)c(N)nc2n1,"active: 49.5 µM and active: 49 µM and inconclusive: 26.8 µM [activator, single point]",,"inconclusive: 31.2 µM [cytotoxic, partial curve] and inconclusive: 21.9 µM [cytotoxic, full curve]",,"inconclusive: 55.6 µM [cytotoxic, partial curve, poor fit]",,,"inconclusive: 34.4 µM [rising, partial curve]",
O=C1OC2(c3ccccc31)c1cc(Br)c(O)c(Br)c1Oc1c2cc(Br)c(O)c1Br,active: 5.58 µM and active: 14.2 µM and active: 23.9 µM,active: 5.58 µM and active: 12.7 µM and active: 19 µM,,"inconclusive: 22.2 µM [cytotoxic, partial curve, poor fit]","inconclusive: 39.5 µM [cytotoxic, partial curve] and inconclusive: 44.9 µM [cytotoxic, partial curve]",active: 4.43 µM and active: 7.11 µM and active: 19 µM,active: 5.58 µM and active: 14.2 µM and active: 21.3 µM,active: 7.81 µM and active: 22.3 µM and active: 11.9 µM,"active: 9.92 µM and active: 20 µM and inconclusive: 26.8 µM [cytotoxic, single point]"
O=C(Nc1cccc(C(F)(F)F)c1)c1cc(Br)cc(Br)c1O,active: 17.4 µM,,active: 4.9 µM,,"inconclusive: 21.9 µM [cytotoxic, partial curve, poor fit]",,,,"inconclusive: 43.6 µM [cytotoxic, partial curve]"
CCOc1ccc([N+](=O)[O-])cc1,"inconclusive: 55.8 µM [activator, single point]",,"inconclusive: 44.3 µM [cytotoxic, partial curve]","inconclusive: 44.3 µM [cytotoxic, partial curve]",inactive,"inconclusive: 55.8 µM [activator, single point]",,,
CC[C@H](c1ccc(O)cc1)[C@@H](CC)c1ccc(O)cc1,"active: 43.6 µM and inconclusive: 26.8 µM [activator, single point]",,"active: 24.5 µM and inconclusive: 30.1 µM [cytotoxic, single point]","inconclusive: 34.7 µM [cytotoxic, partial curve]","inconclusive: 49 µM [cytotoxic, single point]","inconclusive: 54.9 µM [activator, single point]",active: 54.9 µM,,"inconclusive: 30.9 µM [cytotoxic, partial curve]"
Cc1ccc(S(=O)(=O)Oc2ccc(N=Nc3ccc(-c4ccc(N=Nc5c(O)ccc6cc(S(=O)(=O)O)cc(S(=O)(=O)O)c56)c(C)c4)cc3C)cc2)cc1,inactive,,"inconclusive: 55.2 µM [cytotoxic, single point]","inconclusive: 49.2 µM [cytotoxic, single point]","inconclusive: 12.3 µM [cytotoxic, partial curve] and inconclusive: 11.3 µM [cytotoxic, partial curve]",,,,"inconclusive: 49.2 µM [cytotoxic, partial curve] and inconclusive: 16 µM [cytotoxic, partial curve]"
